Laboratory results as given in PubChem BioAssay AID686971 (National Center for Advancing Translational Sciences (NCATS), 2013).
Hit rate of the full screen: of about 360,000 compounds, about 7,500 (2.1%) were called active. This list was built around the results that the source calls inconclusive (neither active nor inactive); the mix of calls is not that of the screen. Calls come from the whole dose curve; as a rule, active = well fitted cell-killing curve with a large enough effect; inconclusive = small, poorly fitted or top-dose-only effect, or effect the other way, or another doubt; inactive = no such curve, though single readings can be large or run the other way. Potencies of inconclusive entries are left out as doubtful fits.

Assay: qHTS for induction of synthetic lethality in tumor cells producing 2HG: qHTS for the HT-1080-IDH1KD cell line;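 for activity, negative = toxicity: 0% = DMSO wells and -100% = cell-free medium wells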
Conditions: HT-1080 IDH1 knockdown viability, ATP luminescence, 48 h; activity, negative = toxicity: at 46.1 µM (top of the series) unless noted
Method in brief: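 HT-1080-IDH1KD cells (IDH1 knocked down), 750/well in RPMI with 5% FBS, treated with compound 48 h at 37 degrees C. Viability by CellTiter-Glo luminescence, normalised to DMSO and no-cell wells; concentration-response curves classed.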
Potency is the fitted concentration of half-maximal effect; tags give direction and shape of the fitted curve.

| SMILES | activity, negative = toxicity | Potency |
| --- | --- | --- |
| Cc1sc(NC(=S)NC(=O)c2ccc(C(C)(C)C)cc2)c(C#N)c1C | inconclusive: -21.4% [cytotoxic] |  |
| N=c1nc(N)nc2n1NC(c1ccc(F)cc1)=CS2 |  | inconclusive [cytotoxic, single point] |
| CCCn1nc(C(=O)NC2CCCCCC2)c2ccccc2c1=O |  | inactive |
| Cc1cc(C)c(S(=O)(=O)Nc2ncn[nH]2)cc1C |  | inactive |
| Cc1ccc(Oc2ccccc2/C=C/C(=O)O)cc1 |  | inactive |
| COc1cc(C2C3=C(Nc4ncnn42)c2ccccc2CC3)cc(OC)c1OC (configuration not stated) |  | active: 0.731 µM |
| Cc1ccc(N2C(=O)CSC2c2cccnc2)c(Cl)c1 (configuration not stated) |  | inconclusive [cytotoxic, partial curve] |
| C=CCn1c(COc2ccccc2)nnc1SC(C)C(=O)N/N=C/c1cc(Cl)ccc1O (configuration not stated) |  | inconclusive [cytotoxic, partial curve] |
| Cc1ccc(NC(=O)c2sccc2C)nc1 |  | inconclusive [cytotoxic, single point] |
| COc1cc(/C=C(/C#N)C(=O)Nc2ccccc2)c(Br)cc1OCc1ccc(C(=O)O)cc1 |  | inconclusive [cytotoxic, single point] |
| CN(C)S(=O)(=O)c1cc(NC(=O)CSc2nn(-c3ccc(Cl)cc3)c(=S)s2)ccc1Cl |  | inconclusive [cytotoxic, single point] |
| COc1ccc(N=C2C(=O)Nc3ccc(C)c(Br)c32)cc1 |  | inconclusive [cytotoxic, partial curve] |
| COC(=O)[C@@]1(Cc2ccc(OC)cc2)[C@@H]2C(=CC(=O)[C@H]2CC(=O)C(=O)N(C)C)CN1C(=O)c1ccccc1 |  | inconclusive [cytotoxic, single point] |
| C=CCOc1cccc(/C=N/NC(=O)CN2CCCCC2)c1 |  | inactive |
| Fc1ccc(Nc2nnc(C(F)(F)F)s2)cc1Cl |  | inconclusive [cytotoxic, single point] |
| COc1cccc(CN(C)C(=O)c2ccc(Oc3ccccc3)cc2)c1OC |  | inactive |
| COc1cc(C)ccc1OCc1cc(C(=O)N(C)CCCN2CCOCC2)no1 |  | inactive |
| CCCn1nc(C(=O)OCC(=O)c2ccccc2)c2ccccc2c1=O |  | inactive |
| O=C(CS(=O)(=O)Cc1ccccc1)Nc1ccc(S(=O)(=O)N2CCOCC2)cc1 |  | inactive |
| COc1ccc(NC(=O)c2cc(-c3cc(Cl)ccc3OC)n[nH]2)c(OC)c1 |  | inconclusive [cytotoxic, single point] |
| CCn1c(SCC(=O)N/N=C/C=C\c2ccccc2[N+](=O)[O-])nc2ccccc21 |  | inactive |
| C[C@@H]1CN([C@H](C)CO)C(=O)CCCn2nncc2CO[C@@H]1CN(C)C(=O)NC1CCCCC1 |  | inactive |
| CCCCC(=O)N1C/C=C\C(c2ccc(OC)cc2)N(Cc2ccc(F)cc2)C(=O)[C@H]1Cc1ccccc1 (some centres not stated) |  | inconclusive [cytotoxic, single point] |
| Cc1ccc(S(=O)(=O)N2CCOCC2)c(C)c1-n1cnnn1 | inconclusive: 31.8% |  |

| SMILES | activity, negative = toxicity | Potency |
| --- | --- | --- |
| CCCC(=O)Nc1ccc(C#Cc2ccccc2)cc1 |  | inconclusive [cytotoxic, single point] |
| COc1ccc(/C=N/NC(=O)CC(=O)NC2CCCCC2)cc1 |  | inactive |
| CC(C)(C)c1ccc(C(=O)NCCCNC(=O)c2cccnc2)cc1 |  | inconclusive [cytotoxic, single point] |
| CCOc1ccc(N(CC(=O)Nc2ccccc2C)S(=O)(=O)c2c(C)noc2C)cc1 |  | active: 3.66 µM |
| CC(C)Oc1ccc(CN2CCC2(C)C(=O)NCc2ccc(C(F)(F)F)cc2)cc1 (configuration not stated) |  | inconclusive [cytotoxic, single point] |
| COc1ccc(-c2cc(C(=O)Nc3ccc(C)c(N)c3)c3ccccc3n2)cc1 |  | inconclusive [cytotoxic, single point] |
| c1ccc(-c2cc(-c3nnc4n3N=C(c3ccc5ccccc5c3)CS4)[nH]n2)cc1 |  | active: 17.8 µM |
| COc1cc(C2c3cc4c(cc3OC(N3CCCC3)C2C)OCO4)cc(OC)c1O (configuration not stated) |  | inconclusive [cytotoxic, single point] |
| COCCOC(=O)c1[nH]c2c(c1C)C(=O)CC(c1ccccc1)C2 (configuration not stated) |  | active: 1.3 µM |
| Cn1c(SCc2cccc(C#N)c2)nc2ccccc2c1=O |  | inconclusive [cytotoxic, partial curve] |
| CC(C)C[C@H]1CN([C@@H](CC(C)C)CN2CCCC2CN2C(=S)NC[C@@H]2Cc2ccccc2)C(=S)N1CC1CCCCC1 (some centres not stated) |  | active: 16.4 µM |
| CN(C)S(=O)(=O)Oc1ccsc1C(=O)Nc1ccc(Cl)c(Cl)c1 |  | inconclusive [cytotoxic, single point] |
| Nc1cccc(CCc2nc3cc4ccccc4cc3[nH]2)c1 |  | active: 10.3 µM |
| O=C(N/N=C/c1ccccc1)c1[nH]c2ccc(Br)cc2c1-c1ccccc1 |  | active: 0.731 µM |
| COc1ccc(NS(=O)(=O)c2ccc(NC(=O)c3ccc(CN4CCOCC4)cc3)cc2)cc1 |  | inconclusive [cytotoxic, full curve] |
| Cc1cccc(C)c1NS(=O)(=O)c1ccc(-c2cnc(C3CC3)o2)cc1 |  | active: 0.164 µM |
| Cc1ccc(-c2csc(NCCn3c(C)nc4cc(C(F)(F)F)ccc43)n2)cc1 |  | inactive |
| COc1ccc(-n2cc(-c3ccccc3)c3c(NCCCN4CCOCC4)ncnc32)cc1 |  | active: 18.4 µM |
| Cc1cccc(C)c1Nc1c(-c2ccccn2)nc2ccccn12 |  | inconclusive [cytotoxic, single point] |
| CCOC(=O)c1ccc(NC(=O)CC2C(=O)N(c3ccc(F)cc3)C(=O)N2CCC(C)C)cc1 (configuration not stated) |  | inconclusive [cytotoxic, single point] |
| COc1ccc(/C=C/C(=O)NC(=S)NCc2ccccc2)cc1OC |  | inconclusive [cytotoxic, single point] |
| Cc1[nH]c2ccccc2c1C(=O)c1cc([C@H](NC(=O)OC(C)(C)C)C(C)C)sc1N |  | inconclusive [cytotoxic, partial curve] |
| COc1cccc(C2c3cc4c(cc3OC(N3CCOCC3)C2C)OCO4)c1O (configuration not stated) |  | inconclusive [cytotoxic, single point] |
| CC1=C/C(=C(\c2cc(C)c(O)c(Br)c2)c2ccccc2S(=O)(=O)O)C=C(Br)C1=O |  | inconclusive [cytotoxic, single point] |

| SMILES | activity, negative = toxicity | Potency |
| --- | --- | --- |
| CCCc1ncc(CN2CCCCC2C(=O)Nc2ccc(Oc3ccccc3)nc2)cn1 (configuration not stated) |  | inactive |
| Clc1cc(Br)ccc1OCCCNCc1ccccc1 |  | inconclusive [cytotoxic, single point] |
| C=CCOc1c(CNn2nnnc2N)cccc1OC |  | inactive |
| O=C(Cc1c(F)cccc1Cl)Nc1cc(S(=O)(=O)N2CCOCC2)ccc1N1CCCC1 |  | inactive |
| Cc1cnn(CCC(=O)NNC(=S)Nc2cccc(Cl)c2)c1 |  | active: 0.708 µM |
| CCS(=O)(=O)c1ncc(Cl)c(C(=O)Nc2ccccc2OC)n1 |  | inconclusive [cytotoxic, single point] |
| COc1cc2c(cc1OC)C(C)N(CC(=O)Nc1ccc(C)c(S(=O)(=O)N3CCOCC3)c1)CC2 (configuration not stated) |  | inconclusive [cytotoxic, single point] |
| Cc1ccc(C(=O)Cn2c(C(=O)/C=C/c3ccccc3)nc3ccccc32)cc1 |  | inconclusive [cytotoxic, single point] |
| COc1ccc(CN(C(C)=O)c2cccc(C)c2C)cc1 |  | inconclusive [cytotoxic, single point] |
| Cc1cccc(OCC(=O)NC(C)C(=O)N/N=C/c2c(OCc3ccccc3)ccc3ccccc23)c1 (configuration not stated) |  | inconclusive [cytotoxic, single point] |
| Cc1cccc(N2C(=O)CN(Cc3ccccc3)C2=S)c1 |  | inactive |
| O=C(c1cc(-c2cccnc2)nc2ccccc12)N1CCCc2ccccc21 |  | inconclusive [cytotoxic, partial curve] |
| Cc1ccc2cc3cc(C(=O)NCCCN4CCc5ccccc5C4)oc3nc2c1 |  | inconclusive [cytotoxic, single point] |
| Cc1c(F)cccc1NS(=O)(=O)c1ccc2c(c1)c(=O)n(C)c(=O)n2C |  | inconclusive [cytotoxic, single point] |
| O=C(Nc1ccc(Oc2cccnc2)cc1)C1CCN(Cc2cccc(Cl)c2)CC1 |  | inconclusive [cytotoxic, single point] |
| O=[N+]([O-])c1ccc2nc(-c3ccc(OC(F)F)cc3)cn2c1 |  | inconclusive [cytotoxic, single point] |
| Cc1cc(=O)[nH]c(N=N/C(=N/Nc2ccccc2C)c2ccccc2)n1 |  | inconclusive [cytotoxic, full curve] |
| COc1cccc(/C=N/Nc2ncnc(Cl)c2N)c1O |  | active: 4.11 µM |
| O=[N+]([O-])c1ccc(Nc2ccccc2)c2nonc12 |  | inactive |
| O=C(NNc1ccccc1)OCc1ccccc1 |  | active: 3.26 µM |
| C[C@@H]1CCCCO[C@@H](CN(C)S(=O)(=O)c2ccc(F)cc2)[C@@H](C)CN([C@H](C)CO)C(=O)c2cc(N(C)C)ccc2O1 |  | inactive |
| CCOc1ccccc1/C=N/Nc1ccnc(=O)[nH]1 |  | inactive |
| CCCNC(=O)C1(C)CCCN(C(=O)COc2ccc(C(C)(C)C)cc2)C1 (configuration not stated) |  | inconclusive [rising, partial curve] |
| CN(C)c1nc(-c2ccccn2)nnc1-c1ccccc1 |  | inconclusive [cytotoxic, partial curve] |
